Data published in publication PMC10692228, “A simple method for developing lysine targeted covalent protein reagents” (Nature Communications, 2023).

System: 14-3-3σ
Experiment: Covalent labeling of 14-3-3σ by peptides, intact protein LC/MS
Assay type: binding, human
Conditions: 2 µM 14-3-3σ, 10 mM MgCl2
Description: The LC/MS runs for 14-3-3σ were performed on a Waters ACQUITY UPLC class H instrument, in positive ion mode using electrospray ionization. […] The column was held at 40 °C and the autosampler at 10 °C. […] The run flow was 0.4 mL/min. […] The MS data were collected on a Waters SQD2 detector with an m/z range of 2–3071.98 at a range of 900–1900 m/z. The desolvation temperature was 500 °C with a flow rate of 800 L/h. The voltages used were 1.00 kV for the capillary and 24 V for the cone. MassLynx version 4.2 was used to operate the LCMS and analyze the data. Raw data were processed using openLYNX and deconvoluted using MaxEnt with a range of 28,000: 34,000 Da and a resolution of 1 Da/channel. […] For analysis, 24 μl sample was mixed with 6 μl of 2.4% formic acid in water and then 10 μl were injected to intact protein LCMS.

Ac-RAH-(pT)-(mC)-PASLQ-NH2 [Peptide 8, Methacrylate phosphopeptide derived from YAP-1 (PDB 3MHR)]
labeling of 14-3-3σ (5 µM peptide, 48 h, room temperature, HEPES 25 mM pH 7.5, 100 mM NaCl): 90%
covalent labeling of 14-3-3σ at the expected adduct mass (200 µM peptide, overnight, 4 °C, 25 mM HEPES pH 7.5, 100 mM NaCl, intact protein LC/MS): 35%
